# In all, about 310,000 compounds went through this assay and about 14,000 (4.5%) showed an effect of 50% or more. Effects have a minus sign here. The list shows a part of the results.
# Biological target: human ether-à-go-go-related gene (hERG) potassium channel (human, UniProt Q12809)
# Assay: primary screen, population patch clamp on CHO cells stably expressing hERG
# 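Also: peak tail current of the secondary pulse compared with the same well before compound.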
# human ether-à-go-go-related gene (hERG) potassium channel, sequence (Q12809 whole entry, looked up): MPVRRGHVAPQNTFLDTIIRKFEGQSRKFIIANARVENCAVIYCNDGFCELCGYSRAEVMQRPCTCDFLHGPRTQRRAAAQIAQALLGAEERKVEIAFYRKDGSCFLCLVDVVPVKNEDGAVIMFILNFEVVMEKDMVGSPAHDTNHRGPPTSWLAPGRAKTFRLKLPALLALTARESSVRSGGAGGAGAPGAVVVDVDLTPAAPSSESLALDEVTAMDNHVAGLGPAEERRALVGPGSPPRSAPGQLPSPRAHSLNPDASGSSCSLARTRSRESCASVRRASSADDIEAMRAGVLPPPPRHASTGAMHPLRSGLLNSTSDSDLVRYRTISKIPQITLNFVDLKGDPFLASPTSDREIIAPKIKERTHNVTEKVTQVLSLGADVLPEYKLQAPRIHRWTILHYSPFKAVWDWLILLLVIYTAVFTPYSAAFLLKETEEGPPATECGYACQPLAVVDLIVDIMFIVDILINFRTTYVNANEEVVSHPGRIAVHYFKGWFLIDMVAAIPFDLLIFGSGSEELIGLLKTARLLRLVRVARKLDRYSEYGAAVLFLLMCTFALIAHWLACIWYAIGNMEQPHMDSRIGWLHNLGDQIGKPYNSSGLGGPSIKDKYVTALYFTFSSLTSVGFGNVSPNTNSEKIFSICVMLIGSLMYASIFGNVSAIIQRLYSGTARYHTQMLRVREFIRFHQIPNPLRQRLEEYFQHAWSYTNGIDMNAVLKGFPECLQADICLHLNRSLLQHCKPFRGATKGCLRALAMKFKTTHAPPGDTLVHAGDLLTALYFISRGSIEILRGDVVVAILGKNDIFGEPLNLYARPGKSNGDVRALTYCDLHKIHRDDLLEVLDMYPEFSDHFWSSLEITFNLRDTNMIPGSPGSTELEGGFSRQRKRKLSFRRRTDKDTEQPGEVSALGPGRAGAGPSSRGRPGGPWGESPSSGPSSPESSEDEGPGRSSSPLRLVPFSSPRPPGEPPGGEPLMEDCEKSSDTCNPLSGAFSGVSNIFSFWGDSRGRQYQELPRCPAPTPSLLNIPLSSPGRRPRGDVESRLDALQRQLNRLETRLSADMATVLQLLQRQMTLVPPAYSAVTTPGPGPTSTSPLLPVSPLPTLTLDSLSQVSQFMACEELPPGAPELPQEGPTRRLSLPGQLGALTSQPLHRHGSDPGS
row,Compound,"hERG current change (%, negative = inhibition) at 10uM"
1,O=C(COC(=O)c1ccccn1)c1ccc([N+](=O)[O-])cc1,2.58%
2,CC(O)c1nc2ccccc2n1CCCOc1ccccc1 (centres unmarked),-7.48%
3,CCn1c(SCC(=O)Nc2nc(C)cs2)nnc1-c1ccncc1,11.2%
4,COc1ccc(F)cc1S(=O)(=O)NCc1cc(=O)n(C)c(=O)n1C,3.38%
5,CN1CCSc2ccc(C(=O)Nc3cccc(F)c3)cc21,-30.3%
6,O=C(O)Cn1ncc2ccccc2c1=O,19.2%
7,O=[N+]([O-])c1cnc2ccccc2c1,-12.7%
8,O=C(NCCC(c1ccccc1)c1ccccc1)c1ccc(Br)o1,-21.5%
9,CCc1ccc2oc(C(=O)N3CCN(c4ccc(OC)cc4)CC3)cc(=O)c2c1,-36.7%
10,O=C(Nc1ccccc1)C1CC2CCCC(C1)C2=O (centres unmarked),-21.1%
11,Cc1ccc(C)c(-n2c(-c3ccc(Br)cc3)csc2=NC(=O)c2ccccc2F)c1,26.7%
12,COc1ccc(CCC(=O)OCC(=O)Nc2ccccc2)cc1,29.6%
13,COc1ccc(CNC(=O)C(C)Cc2ccccc2)cc1O (centres unmarked),13.1%
14,Cc1noc(C)c1S(=O)(=O)N1CCC(C(=O)Nc2ccc(OC(F)(F)F)cc2)CC1,-11.5%
15,Cc1cc(C)n(-c2ccccc2[N+](=O)[O-])n1,20.1%
16,Cc1cccc(NC(=O)CCC2CCN(C(=O)C3CC=CCC3)CC2)c1 (centres unmarked),-31.5%
17,CC(=O)c1cccc(OCc2cc(C(=O)NC(C)Cc3cccnc3)no2)c1 (centres unmarked),-6.23%
18,Br.C=CCN1CCc2cccc3c2[C@H]1Cc1ccc(O)c(O)c1-3,-19.3%
19,CCN(c1cccc(C)c1)c1nc2ccsc2c(=O)s1,2.57%
20,CCOc1ccc(/C=C2\SC(=O)N(c3ccc(O)cc3)C2=O)cc1OC,8.06%
21,Cc1noc(NS(=O)(=O)c2ccc(NC(=O)c3ccc(Br)o3)cc2)c1C,13.8%
22,Cn1c(=O)c([N+](=O)[O-])c(NCC(O)c2ccccc2)c2ccccc21 (centres unmarked),-2.03%
23,Cc1cc(C(=O)Cn2nnc3ccccc3c2=O)c(C)n1-c1ccccc1F,1.45%

row,Compound,"hERG current change (%, negative = inhibition) at 10uM"
1,O=C(CCNS(=O)(=O)c1cccs1)N1CCN(c2cccc(C(F)(F)F)c2)CC1,-26%
2,CN(C(=O)Nc1ccc(Cl)cc1)n1cnc2ccccc2c1=O,-5.97%
3,CCOC(=O)c1c(NC(=O)CS(=O)(=O)c2cn(CC)c3ccccc23)sc2c1CCCCC2,17.9%
4,CN(CC(=O)Nc1ccccc1C(F)(F)F)C(=O)c1cc([N+](=O)[O-])ccc1N1CCOCC1,12.6%
5,O=C(NCc1ccc(F)cc1)C1CC(=O)N(CCc2ccccc2)C1 (centres unmarked),-24.1%
6,CCC(=O)Nc1ccc(NC(=O)Cc2ccccc2)cn1,5.6%
7,CC(C)(C)NC(=O)CN(Cc1cccs1)C(=O)c1csnn1,4.73%
8,CCCCC(=O)Nc1cnc(NC(=O)c2ccco2)cc1C,-27.5%
9,CCCCn1c(SCC(=O)Nc2nnc(C)s2)nnc1-c1ccoc1C,2.29%
10,Cc1c(Cl)cccc1NC(=S)N1CCOCC1,9.36%
11,O=C(Cc1ccc(Cl)cc1)Nc1cc(Cl)ccn1,-17.3%
12,COc1cc(/C=N/Nc2ccccn2)ccc1O,-4.36%
13,CCCCN(CCCNC(=O)C1CCCN(S(=O)(=O)CCC)C1)Cc1ccccc1 (centres unmarked),-49.3%
14,Cc1nc2ccc(NC(=O)c3ccc(S(=O)(=O)N(C)C)cc3)cc2s1,16.6%
15,CCOc1ccc2c(c1)C(C)=CC(C)(C)N2C(=O)Nc1ccccc1F,11.3%
16,c1ccc(-n2cc(CN3CCCC(CN4CCCC4)C3)c(-c3ccc4c(c3)OCO4)n2)cc1 (centres unmarked),-29.2%
17,O=C(CCN1CCN(Cc2ccccc2)CC1)NNC(=O)Cc1ccc(Cl)c(Cl)c1,-74.7%
18,O=S(=O)(NCc1ccccc1Br)c1cccs1,-8.38%
19,Cc1ccccc1NC(=O)c1c(C)[nH]c(=S)c(C#N)c1-c1ccco1,10.3%
20,CCc1ccc(C(=O)OCC(=O)NC2CCCC2)cc1,11.8%
21,CCc1ccc2nc(N(CCCN(C)C)C(=O)c3ccc4c(c3)OCCO4)sc2c1.Cl,-48.3%
22,Cc1ccc(CN2CC34C=CC(O3)C(C(=O)NCc3ccco3)C4C2=O)cc1 (centres unmarked),-6.72%
23,Cc1noc(/C=C/N(C)C)c1S(=O)(=O)N1CCC(C(=O)Nc2ccc(Cl)cc2)CC1,-11.3%

row,Compound,"hERG current change (%, negative = inhibition) at 10uM"
1,CSc1nc(-c2ccco2)nn1C(=O)CCc1ccccc1,25%
2,COc1ccc(CN2CCN(c3ncnc4scc(-c5ccc(F)cc5)c34)CC2)cc1,-65.8%
3,Cc1cc(Cl)c(S(=O)(=O)NCc2ccccc2)cc1OCC(N)=O,-23.6%
4,Nc1nc(-c2cccnc2)nc2sc3c(c12)CCCC3,0.573%
5,COc1ccccc1NC(=O)/C(C#N)=C/c1ccc(OCCN2CCOCC2)c(OC)c1,-6.48%
6,O=C(Cn1cnc2c(cnn2-c2ccccc2)c1=O)NC1CCCC1,-17.5%
7,CCC(C(=O)Nc1nc(C)c(C)s1)c1ccccc1 (centres unmarked),12.5%
8,CCN(C(=O)COc1cc(OC)ccc1C(C)=O)C1CCS(=O)(=O)C1 (centres unmarked),-2.94%
9,COc1ccc(Nc2ncnc3c2c(C)c(C)n3CCCN(C)C)cc1,-32.7%
10,CCOC(=O)/C(C(=O)Nc1ccccc1Cl)=C1/NC(C)(C)Cc2ccccc21,-7.22%
11,CCN(CC)C(=O)C1CC(=O)N(c2ccc(OC)cc2)C1c1ccc(OC)cc1 (centres unmarked),18.9%
12,CCOc1ccc(NC(=O)Nc2ccc(Br)cn2)cc1,12.1%
13,Cc1ccccc1C(=O)N1CC(=O)Nc2ccc(F)cc2C1c1ccc(F)cc1 (centres unmarked),-16.1%
14,COCCN(CC1CCCN(C2Cc3ccccc3C2)C1)C(=O)CCC(F)(F)F (centres unmarked),-55.4%
15,COc1ccc(/C=C2\C(=O)c3ccccc3OC2c2ccccc2)cc1 (centres unmarked),7.66%
16,COc1cc2c3c(c1)C1(C(=O)N3C(C)(C)C=C2C)C(C#N)=C(N)Oc2cc(O)ccc21 (centres unmarked),-12%
17,CC[C@H](C)C(N)c1cn(C(CCCN=C(N)N)C(=O)N2CCNCC2)nn1 (some centres unmarked),5.4%
18,Cc1ccc(/C(O)=C2\C(=O)C(=O)N(CCN(C)C)C2c2ccccc2F)cc1 (centres unmarked),-13.4%
19,Cc1ccc(C(=O)NC(N2CCCC2)C(Cl)(Cl)Cl)cc1 (centres unmarked),0.862%
20,Cc1ccc(C)c(N2CCN(C(=O)CCc3nc4ccccc4[nH]3)CC2)c1,1.66%
21,O=C(c1cc(COc2ccc(F)cc2F)on1)N1CCOCC1,17.7%
22,Cc1cc(C)cc(NC(=O)[C@@H](NC(=O)c2ccco2)C(C)C)c1,5.62%
23,O=C(c1ccccc1)C1NC1c1ccccc1 (centres unmarked),10.5%

row,Compound,"hERG current change (%, negative = inhibition) at 10uM"
1,CC(=O)Nc1ccc(OC(=O)c2cc([N+](=O)[O-])ccc2Cl)cc1,-4.87%
2,C=C(C)C1CC=C(C)/C(=N/NC(=O)c2ccc(NC(=O)CC)cc2)C1 (centres unmarked),-15.1%
3,COc1ccc(NS(=O)(=O)c2cc(NC(=O)c3ccc(C)o3)ccc2N2CCCCC2)cc1,2.8%
4,N/C(=N\OC(=O)c1ccccc1Cl)c1ccc(Cl)cc1,-29.6%
5,Cc1cc(C)nc(NC(=O)c2ccc(OC(C)C)cc2)n1,1.25%
6,Cc1coc2cc3oc(=O)c(CCC(=O)N4C[C@H]5C[C@@H](C4)c4cccc(=O)n4C5)c(C)c3cc12,-42.5%
7,Cc1ccc(C(=O)CC(C(=O)O)n2cnc([N+](=O)[O-])n2)cc1 (centres unmarked),15.2%
8,CC(O/N=C/c1ccccc1OC(F)F)C(=O)Nc1cccc(S(=O)(=O)N2CCOCC2)c1 (centres unmarked),-33.9%
9,CCOc1ccccc1CN1CCCC(CNC(=O)Cc2ccc(OC)cc2)C1 (centres unmarked),-22.1%
10,COCC(=O)N=Nc1c(O)[nH]c2ccccc12,-5.52%
11,O=C(Oc1cccc(Oc2ccccc2)c1)N1CCOCC1,-22.9%
12,CC(C)(C)c1ccc(S(=O)(=O)N2CCCC2C(=O)N2CCOCC2)cc1 (centres unmarked),-18%
13,CCCC(NS(=O)(=O)c1ccc(C)cc1)C(=O)O (centres unmarked),3.73%
14,C=CCn1c(C)nc2ccccc2c1=O,5.76%
15,CC(C)CCCN1C(Nc2ccccc2)=NC[C@@H]1CC(C)C,-60.1%
16,COC(=O)/C(C#N)=C(/Nc1ccc(F)c(Cl)c1)C(F)(F)F,13.1%
17,CCC(C)c1ccccc1NS(=O)(=O)c1cnn(CC)c1 (centres unmarked),0.986%
18,O=C(Nc1cc(Cl)ccc1-n1cncn1)c1cc(S(=O)(=O)N2CCOCC2)ccc1F,-34.7%
19,O=C(CSc1nnnn1-c1ccc(O)cc1)N1N=C(c2ccc3ccccc3c2)CC1c1ccccc1 (centres unmarked),10.9%
20,CC(=O)c1ccc(NC(=O)C(C)Sc2nnc(C3CC3)n2C2CC2)cc1 (centres unmarked),-27.9%
